{"source": "PubChem BioAssay AID651820", "about": "(National Center for Advancing Translational Sciences (NCATS), 2012)", "note": "About 12,000 (3.5%) of roughly 340,000 compounds were called active. Inconclusive results, whose numbers are uncertain, are shown with a selection of clear calls. Calls follow the shape of the dose curve; as a rule, active = well fitted inhibition curve with a large enough effect; inconclusive = small, poorly fitted or top-dose-only effect, or another doubt; inactive = no such curve, though single readings can be large or run the other way. No potency is given beside an inconclusive call; the fits are too rough. % is scaled to controls: 0 for no effect and ±100 for the full control effect; potency is read from the fitted curve at half-maximal effect; tags tell the direction and shape of the fitted curve."}
{"experiment": "qHTS Assay for Inhibitors of Hepatitis C Virus (HCV)", "details": "Huh7.5.1 HCVcc-Cre (HCVcc is cell-culture hepatitis C virus) infection, luciferase reporter, 44 h; activity change, negative = inhibition: at 41.8 µM (top of the series) unless noted", "outline": "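Luciferase read-out (15 sec integration) after a 15 min room-temperature substrate step quantifies HCVcc-Cre infection. Cells, 1,000 per well, had compound added 4 h post-plating, then virus at ~0.5 moi, and were cultured 44 h.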"}
{"smiles": "CNC(=O)c1sc(Nc2ccc(OCc3ccccc3)cc2)nc1C", "Potency": "inconclusive [inhibitor, partial curve]"}
{"smiles": "CCOCC(=O)Nc1sc2c(c1C(=O)OCC)CCCC2", "Potency": "inconclusive [inhibitor, partial curve, poor fit]"}
{"smiles": "CCCn1c(NCc2ccc3c(c2)OCO3)nc2ccccc21", "Potency": "inconclusive [inhibitor, single point]"}
{"smiles": "COc1ccc(C2C(=O)c3ccccc3C2=O)cc1", "Potency": "inconclusive [inhibitor, single point]"}
{"smiles": "CC(C)CCC1(CCNC(=O)c2cccs2)CCOC(C)(C)C1", "note": "(stereo not given)", "Potency": "inconclusive [inhibitor, full curve]"}
{"smiles": "Cc1ccc(-c2cc(C(=O)NCc3cnn(C)c3)c3cc(Br)ccc3n2)cc1", "Potency": "inconclusive [inhibitor, full curve, poor fit]"}
{"smiles": "COc1ccc(N/C=C(\\C#N)S(=O)(=O)c2ccc(Cl)cc2)c(OC)c1", "Potency": "inconclusive [inhibitor, single point]"}
{"smiles": "C/C=C(\\C)C(=O)NCCN1C2=NC[C@@H](C)N2C[C@@H]1Cc1ccc(OC)cc1", "Potency": "inactive"}
{"smiles": "O=C(c1cc2ccccc2cc1O)N1CCN(c2ccc([N+](=O)[O-])cc2)CC1", "Potency": "inconclusive [inhibitor, partial curve, poor fit]"}
{"smiles": "CCOC(=O)c1cc(-c2ccccc2)sc1NC(=O)C(C)Sc1nnc(C)s1", "note": "(stereo not given)", "Potency": "inconclusive [inhibitor, full curve]"}
{"smiles": "CC(=O)Nc1ccc(NC(=O)C(C)Sc2n[nH]c(=O)n2Cc2ccccc2)cc1", "note": "(stereo not given)", "Potency": "inactive"}
{"smiles": "COc1ccc(/C=C2\\SC(=S)N(CCC(=O)Nc3ccc(O)cc3)C2=O)cc1", "Potency": "inconclusive [inhibitor, full curve, poor fit]"}
{"smiles": "COc1ccc(NC(=S)NCc2cccn2C)cc1", "Potency": "inconclusive [inhibitor, single point]"}
{"smiles": "CC(=O)c1sc2nsc(SCCN3CCCCC3)c2c1N", "Potency": "inconclusive [inhibitor, single point]"}
{"smiles": "CCCN1CCN(C(=O)c2ccccc2-c2nc3ccccc3s2)CC1", "Potency": "inconclusive [inhibitor, single point]"}
{"smiles": "O=C(N/N=C/c1ccc(O)cc1O)/C(=C/c1ccccc1)CCO", "Potency": "inconclusive [inhibitor, partial curve]"}
{"smiles": "CC1(C)C(=O)OC(c2cc(Br)ccc2O)C(C)(C)C1=O", "note": "(stereo not given)", "Potency": "inactive"}
{"smiles": "CCCCOc1ccc(CCN)cc1Cl", "Potency": "inconclusive [inhibitor, single point]"}
{"smiles": "Cc1ccc(Nc2nc(-c3sc(C)nc3C)cs2)cc1", "Potency": "active: 5.62 µM"}
{"smiles": "CCCCc1ccc(NC(=O)C(=O)NCCN2CCN(C(=O)c3ccc([N+](=O)[O-])cc3)CC2)cc1", "Potency": "inconclusive [inhibitor, partial curve]"}
{"smiles": "O=C1CC(Cc2ccccc2)C(=O)N1CCCn1ccnc1", "note": "(stereo not given)", "Potency": "inactive"}
{"smiles": "Cc1cc(NCCN2CCCCC2)n2c(nc3ccccc32)c1C#N", "Potency": "active: 7.08 µM"}
{"smiles": "Cc1ccc(N2C(N)=C(C#N)C(c3ccsc3)C3=C2CC(C)(C)CC3=O)cc1", "note": "(stereo not given)", "Potency": "active: 12.6 µM"}
{"smiles": "CSc1ccc(NC(=O)N2CCN(c3nc4ccccc4s3)CC2)cc1", "Potency": "inconclusive [inhibitor, full curve]"}
{"smiles": "COc1ccc(/C=C2/Sc3ccc(C(=O)NCCN4CCCCCC4)cc3NC2=O)cc1", "Potency": "inconclusive [inhibitor, partial curve]"}
{"smiles": "COc1ccc(-c2[nH]ncc2N=Nc2cc(C)cc(C)c2)cc1", "Potency": "active: 2.24 µM"}
{"smiles": "Cc1nc(-c2ccc(S(=O)(=O)N3CCCN(CCc4ccccc4)CC3)s2)cs1", "activity change, negative = inhibition": "inconclusive: -79.3% [inhibitor]"}
{"smiles": "COc1cc(OC)c(C(=O)Nc2ccccc2-c2ccccc2)cc1OC", "Potency": "inconclusive [inhibitor, full curve]"}
{"smiles": "CCOc1ccccc1C(=O)N[C@H](C(=O)OCc1csc(CC(=O)Nc2ccc(C)cc2)n1)C(C)C", "Potency": "active: 11.2 µM"}
{"smiles": "O=C(CNC(=O)c1ccc(Cl)cc1Cl)OCc1nnc(-c2ccccc2)o1", "Potency": "inconclusive [inhibitor, single point]"}
{"smiles": "Cc1ccc2cc3cc(C(=O)NCCCN4CCCC4)oc3nc2c1", "Potency": "active: 14.1 µM"}
{"smiles": "CC12CCC(=O)N1C(C(=O)Nc1cccc3ccccc13)CS2", "note": "(stereo not given)", "Potency": "inconclusive [inhibitor, full curve, poor fit]"}
{"smiles": "O=C(NCCCCc1ccccc1)NC[C@@H]1CC[C@@H](Cc2ccc(-c3ccccc3)cc2)O1", "Potency": "inconclusive [inhibitor, full curve]"}
{"smiles": "COc1ccc(CNC(=O)C(c2ccco2)N(Cc2cccs2)C(=O)Cc2cccs2)cc1", "note": "(stereo not given)", "Potency": "inconclusive [inhibitor, single point]"}
{"smiles": "COc1ccc2cc(C(=O)C3CCCN(C(=O)c4sc(C)nc4C)C3)ccc2c1", "note": "(stereo not given)", "Potency": "inconclusive [inhibitor, single point]"}
{"smiles": "CCN(CC(=O)NCc1cccs1)C(=O)c1cccc(S(=O)(=O)N(C)C)c1", "Potency": "inactive"}
{"smiles": "CCOc1ccc(NC(=O)c2cc(S(=O)(=O)N3CCCCC3)c[nH]2)cc1", "Potency": "inconclusive [inhibitor, single point]"}
{"smiles": "CCC1CCCCN1C(=O)CSc1nnc(-c2ccc(OC)cc2)o1", "note": "(stereo not given)", "Potency": "inactive"}
{"smiles": "CCn1ccc(C(=O)Nc2ccccc2SC)n1", "Potency": "inactive"}
{"smiles": "Nc1nonc1N/N=C/c1c(O)ccc2ccccc12", "Potency": "inactive"}
{"smiles": "CCn1c(=O)c2cc(C(=O)N(C)c3ccc(OC)cc3OC)sc2c2ccccc21", "Potency": "inconclusive [inhibitor, partial curve]"}
{"smiles": "CC(C)Oc1ccc(S(=O)(=O)N2CCOCC2)cc1NC(=O)c1ccc(N2CCCC2=O)cc1", "Potency": "inactive"}
{"smiles": "O=C1CC(N2CCN(C/C=C/c3ccccc3)CC2)C(=O)N1CCc1ccccc1", "note": "(stereo not given)", "Potency": "inconclusive [inhibitor, single point]"}
{"smiles": "Cc1ccc(-c2nc(CSCC(=O)NCCN3CCN(Cc4ccccc4)CC3)c(C)o2)cc1", "Potency": "active: 12.6 µM"}
{"smiles": "O=C(NCCN1CCN(C(=O)c2ccc(Br)cc2)CC1)c1ccc(Br)cc1", "Potency": "inconclusive [inhibitor, single point]"}
{"smiles": "Cc1cc(N/N=C\\c2ccccc2)nc(-c2ccccc2O)n1", "Potency": "inconclusive [inhibitor, single point]"}
{"smiles": "CCn1c(SCC(=O)Nc2ccc(OC)cc2)nc2nc3c(cc2c1=O)COC(C)(C)C3", "Potency": "inconclusive [inhibitor, partial curve]"}
{"smiles": "O=S(=O)(Nc1ccccc1)c1ccc(-c2cnc(C3CC3)o2)cc1", "Potency": "inconclusive [inhibitor, partial curve]"}
{"smiles": "COc1cc(SC)ccc1C(=O)Nc1c(Cl)cncc1Cl", "Potency": "inconclusive [inhibitor, partial curve, poor fit]"}
{"smiles": "CN(C)/C=N/C(=S)Nc1ccc(Cl)cc1Cl", "Potency": "active: 14.1 µM"}
{"smiles": "O=c1[nH]c(CN2CCN(S(=O)(=O)c3ccccc3C(F)(F)F)CC2)nc2sc3c(c12)CCCC3", "Potency": "inactive"}
{"smiles": "COc1ccc(C2=NN(C(=O)c3cccs3)C(O)(C(F)(F)F)C2)cc1", "note": "(stereo not given)", "Potency": "inconclusive [inhibitor, single point]"}
{"smiles": "O=S(=O)(c1cccc(Cl)c1Cl)N1CCN(C(=S)NCCCN2CCOCC2)CC1", "Potency": "inconclusive [inhibitor, partial curve]"}
{"smiles": "COc1ccccc1CNC(=O)c1ccc(S(=O)(=O)N(C)c2ccccc2)cc1", "Potency": "inconclusive [inhibitor, partial curve]"}
{"smiles": "Cc1cc(C(=O)COC(=O)c2ccc(Cl)c(S(N)(=O)=O)c2)c(C)n1C1CC1", "Potency": "inconclusive [inhibitor, full curve]"}
{"smiles": "C=CCn1cc(/C=N/Nc2nc3ccccc3[nH]2)c2ccccc21", "Potency": "inconclusive [inhibitor, partial curve]"}
{"smiles": "COc1ccc(NC(=O)CN(c2ccccc2F)S(=O)(=O)c2ccc(C)cc2)c(OC)c1", "Potency": "active: 11.2 µM"}
{"smiles": "Cc1cc(CNC(=O)COc2ccccc2F)c2ccccc2n1", "Potency": "active: 25.1 µM"}
{"smiles": "CC1(NC(=O)c2cccc(S(=O)(=O)N3CCN(c4ccc(F)cc4)CC3)c2)CCS(=O)(=O)C1", "note": "(stereo not given)", "Potency": "inactive"}
{"smiles": "CCOC(=O)c1cccc(NS(=O)(=O)c2cnc[nH]2)c1", "Potency": "inconclusive [inhibitor, single point]"}
{"smiles": "COc1ccc(NC(=O)N(C)C[C@H]2Oc3c(NC(=O)Nc4ccc(C(F)(F)F)cc4)cccc3C(=O)N([C@H](C)CO)C[C@@H]2C)cc1", "Potency": "active: 6.31 µM"}
{"smiles": "O=S(=O)(c1ccccc1F)N1CCC(Oc2ccc(-n3cnnn3)cc2)CC1", "Potency": "inactive"}
{"smiles": "COCC(C)NC(=O)c1ccc(-n2nc(C(F)(F)F)cc2-c2cccs2)cc1", "note": "(stereo not given)", "Potency": "inconclusive [inhibitor, partial curve]"}
{"smiles": "COc1cccc(OC)c1C(=O)NC(C)C12CC3CC(CC(C3)C1)C2", "note": "(stereo not given)", "Potency": "inactive"}
{"smiles": "CCOc1cc(C2C3=C(CCCC3=O)Nc3nc(C(=O)OC)nn32)ccc1OC", "note": "(stereo not given)", "Potency": "inactive"}
{"smiles": "CN1CCN(C(=O)c2cc(COc3ccc(F)cc3Cl)on2)CC1c1ccccc1", "note": "(stereo not given)", "Potency": "inconclusive [inhibitor, single point]"}
{"smiles": "O=C(N/N=C/c1sc(N2CCOCC2)nc1-c1ccccc1)c1ccccc1Cl", "Potency": "active: 8.91 µM"}
{"smiles": "Cc1nc(Nc2ccccc2C)c2cnn(C)c2n1", "Potency": "inactive"}
{"smiles": "Cc1cc(C)c[n+](-c2[nH]c(=O)sc2/C=N/N=C(\\[O-])c2cccnc2)c1", "Potency": "inactive"}
{"smiles": "COc1cccc(NC(=O)CN(C)C(=O)CSc2ccc3c(c2)OCCO3)c1", "Potency": "inconclusive [inhibitor, single point]"}
